This is an account of results in PubChem BioAssay AID1508642 (National Center for Advancing Translational Sciences (NCATS), 2021).

In all, about 43,000 compounds went through this assay and about 200 (0.47%) were called active. Inconclusive results (about 12%) are left out. Calls come from the whole dose curve; as a rule, active = well fitted cell-killing curve with a large enough effect; inconclusive = small, poorly fitted or top-dose-only effect, or effect the other way; inactive = flat fitted curve, though single readings scatter. The list shows a part of the results.
% is set by controls: 0 for no effect and ±100 for the full control effect; potency is the fitted concentration of half-maximal effect.

This assay is described as follows: Cell viability qHTS assay in S16 Pmp22-F2sN cells. Note: nearly all actives have a fitted effect of over 65% in size. The following applies: S16 Pmp22-F2sN Schwann cells viability, CellTiter-Glo, 24 h; series mostly up to 57.5 µM; activity change, negative = cytotoxicity: at the top concentration. The procedure, abridged:
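S16 Pmp22-F2sN Schwann cells (500-1,000/well) in phenol-red-free DMEM with 10% FBS received 23 nL compound by pin tool for 24 h at 37 °C. Viability was then read as CellTiter-Glo luminescence after 15 min at room temperature.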
A general note: In qHTS, concentration-response curves come from the screen itself.
As for `O=C(CSc1c2c(nc3ccc(Cl)cc13)CCCC2)NCc1ccccc1Cl`, the Potency was active: 22.4 µM. In the case of `COc1ccc(CCNC(=O)c2cc(=O)c3cc(C)cc(C)c3o2)cc1OC`, the “activity change, negative = cytotoxicity” value was inactive: 1.23%. The same measure, in the same setting: the result for `N=c1n(CCO)c2ccccc2n1Cc1ccccc1F` reads inactive: 0.993%. On the same count and under the same terms, the result for `COc1ccc(Br)c(C(=O)Nc2cc3c(cc2N2CCCC2)n(C)c(=O)c(=O)n3C)c1` reads inactive: 2.05%; that for `Cc1ccc(-c2cc(C(=O)OCC(=O)c3ccccc3)c3cccc(Cl)c3n2)cc1`, inactive: -3.82%; that for `O=C(OCc1ccco1)c1ccc2c(c1)N(Cc1cccc(F)c1)C(=O)c1ccccc1S2`, inactive: 21.4%.

Turning to `Cc1cc(N(C)Cc2ccccc2)n2nc(-c3ccc(C(C)(C)C)cc3)nc2n1`, the “activity change, negative = cytotoxicity” value was inactive: 1.94%. Same read-out and setting: to `CCCCNC(=O)c1cccc(-n2cnc3cccnc32)c1C` belongs inactive: 2.71%; to `CC1CCCCN1C(=O)c1ccc2c(c1)N(Cc1cccc(Cl)c1)C(=O)c1ccccc1S2=O` (configuration not stated), inactive: -11.9%; to `CCC(NC(=O)Nc1cc(Cl)ccc1OC)c1c(-n2cccc2)sc2c1CCN(C)C2` (configuration not stated), inactive: -20.8%. On the same count and under the same terms, the result for `CCCCCn1c(=O)[nH]c2cc(C(=O)NCCN(C)CCCC)ccc2c1=O` reads inactive: -11.1%; that for `COc1ccc(OCCn2nnc3sc4c(c3c2=O)CCC(C(C)(C)C)C4)cc1` (configuration not stated), inactive: 12.7%; that for `CC1CCN(c2nc3c(-c4cccc(Br)c4)nnn3c3ccccc23)CC1`, inactive: 11.7%.

Consider `CCc1ccc(-n2nc3cc(C)c(NC(=O)c4ccccc4C)cc3n2)cc1`, for which the “activity change, negative = cytotoxicity” value is inactive: -2.56%.

Regarding `CCOc1ccc(-c2c(C)nn3c(C)c(C(=O)NCc4ccc(Cl)cc4)cnc23)cc1OCC`, the “activity change, negative = cytotoxicity” value is inactive: 3.55%. Still for that read-out and setting: to `Cc1cc(C)c2c(=O)cc(C(=O)Nc3nc4ccc(F)cc4s3)oc2c1` belongs inactive: 5.41%; to `CCC(CC)C(=O)Nc1c(C(=O)N2CCN(c3ccccc3)CC2)oc2ccccc12`, inactive: -3.03%. Still for that read-out and setting: the result for `Cc1ccc(CNS(=O)(=O)c2ccc(-c3cnc(C4CC4)o3)cc2)cc1` reads inactive: -24.8%. Still for that read-out and setting: the result for `CCc1cccc(NC(=O)Cn2c(=O)c(C(F)(F)F)nc3ccccc32)c1` reads inactive: 0.466%; that for `Cc1cccc(CSc2nc3cc(C(=O)NC4CCCC4)ccc3c(=O)n2Cc2ccccc2)c1`, inactive: 0.813%; that for `Cc1coc2cc3oc(=O)c(CC(=O)N4CCCCC4)c(C)c3cc12`, inactive: 11%. For the molecule `COc1ccc(CCNc2nc(-c3ccc(Cl)cc3)cc(C(F)(F)F)n2)cc1OC`, the “activity change, negative = cytotoxicity” value was inactive: 6.83%.

Consider `CCOC(=O)c1c(C)[nH]c(C)c1S(=O)(=O)N1CCC(C(=O)N2CCN(c3cccc(C)c3C)CC2)CC1`, for which the “activity change, negative = cytotoxicity” value was inactive: -20.2%. Same read-out and setting: the result for `COc1ccccc1-c1nc2c(c(SCc3ccc(F)cc3Cl)n1)Cc1c(CO)cnc(C)c1O2` reads inactive: -3.47%; that for `COC(=O)c1ccc(NC(=O)CCc2c(C)nn(-c3ccc(N4CCOCC4)nn3)c2C)cc1`, inactive: -5.68%; that for `COc1ccc(Cl)cc1NC(=O)Cc1coc2c(C)c(C)ccc12`, inactive: -13.1%.

As for `COc1ccccc1-c1nc2c(c(SCC(=O)Nc3ccccc3F)n1)Cc1c(CO)cnc(C)c1O2`, the “activity change, negative = cytotoxicity” value is inactive: -3.25%. Regarding `COc1ccccc1N1CCN(CCCNC(=O)c2nnc(Cc3c(F)cccc3Cl)o2)CC1`, the “activity change, negative = cytotoxicity” value is inactive: -2.74%. Still for that read-out and setting: the result for `CC(O)CNC(=O)C(=O)Nc1c2c(nn1-c1ccc(Cl)cc1)CSC2` (configuration not stated) reads inactive: -2.06%. On the same count and under the same terms, the result for `COc1ccc(NC(=O)C2CCCN(C(=O)c3cnn(-c4ccccc4)c3-n3cccc3)C2)cc1` (configuration not stated) reads inactive: -22.4%.

Regarding `CCOc1ccc(CCNC(=O)CS(=O)(=O)Cc2nc(-c3cccc(Cl)c3)oc2C)cc1`, the “activity change, negative = cytotoxicity” value was inactive: -0.47%. Same read-out and setting: to `COc1ccccc1C(=O)Nc1c(C(=O)N2CCN(c3ccc(F)cc3)CC2)oc2ccccc12` belongs inactive: -2.07%; to `Cc1ccc2c(=O)cc(C(=O)N(Cc3ccccc3Cl)C3CCS(=O)(=O)C3)oc2c1` (configuration not stated), inactive: -4.55%. Same read-out and setting: to `COc1ccc(-c2cc(-c3ccccc3)c(C#N)c(SCC(O)CS(=O)(=O)Cc3ccccc3)n2)cc1` (configuration not stated) belongs inactive: 2.4%; to `Cc1cc(C)c2oc(C(=O)Nc3c(C)n(C)n(-c4ccccc4)c3=O)cc(=O)c2c1`, inactive: 2.09%; to `CC(=O)N1CCc2c(sc3c2c(=O)n(-c2ccccc2C)c(=O)n3CC(=O)c2ccccc2)C1`, inactive: 2.91%.

`Cc1ccc(C(=O)NCC(=O)OCc2cc(=O)n3c(C)csc3n2)cc1`: the “activity change, negative = cytotoxicity” value was inactive: 20.7%. Still for that read-out and setting: to `Cc1ccc(-n2nc3cc(C)c(NC(=O)COc4ccccc4)cc3n2)cc1` belongs inactive: 9.35%. The same measure, in the same setting: to `CCOC(=O)CCN(c1ccccc1)S(=O)(=O)c1cc(-c2cc(C)no2)ccc1C` belongs inactive: -13.1%; to `CCc1cc2c(cc3c(=O)n(CC(=O)NC4CCCCC4)nc(CC)n32)s1`, inactive: 4.91%. The same measure, in the same setting: to `Cc1cn(C)c(CC(=O)N2CCN(c3cccc(C(F)(F)F)c3)CC2)c1C(=O)O` belongs inactive: 7.78%.

For `Cc1ccc(-n2cc3c(c2-c2ccccc2Br)c(=O)n(C)c(=O)n3C)cc1N`, the “activity change, negative = cytotoxicity” value was inactive: -13%. Turning to `Cc1ccc(C)c(NC(=O)Cn2c(=O)n(-c3ccccc3C)c(=O)c3c2c2cc(C)ccc2n3C)c1`, the “activity change, negative = cytotoxicity” value was inactive: 1.77%. Regarding `CC(C)n1cc2c(c1-c1ccccc1Cl)c(=O)n(C)c(=O)n2C`, the “activity change, negative = cytotoxicity” value is inactive: -7.21%. Still for that read-out and setting: to `Cc1ccc(C(C)C)c(OCC(=O)NCC2(N3CCOCC3)CCCCC2)c1` belongs inactive: -29.8%; to `Cc1cccc(C(=O)Nc2cccc(OCc3cc(=O)n4cc(C)sc4n3)c2)c1`, inactive: 15.9%.

Take `Cn1ccc2cc(S(=O)(=O)N3CCCC(C(=O)NCc4ccc(F)cc4)C3)ccc21` (configuration not stated): the “activity change, negative = cytotoxicity” value was inactive: -3.33%.
